Measurements published in the RNAGym collection of RNA variant scans (doi:10.7554/elife.90254).
The source gives no read counts; variants with many changes may rest on few reads.

B1: OR4K15 (parent)
chain: GUUAACGGUCAUAGGCCAUGGAAACUAGGAGCACCAUUUCGCUGCCAGUGAAGAAAUGAACAAAGAAAAUCUGGGCCAGGCAGGCAUCAAAAGAAAUAGUCUUGCGCUCAACCAGAAAGUCUGUAAUCAUUUUAAGGGUA

Variants of: B1
Assay: self-cleavage, relative activity (ratio to wild type); higher = more cleavage; in vitro, sequencing; the parent is a self-cleaving ribozyme

| Variant | self-cleavage |
| --- | --- |
| GUUAACGGUCAUAGGCCAUGGAAACUAGGAGCACCAUUUUGCUGCCAGUGAAGAAAUGAACAAAGAAAAUCUGGGCCAGGCAGGCACCAAAAGAAAUAGUCUUGCGUUCAACCAGAAAGUCUGUAAUCAUUUUAAGGGUA [C40U U87C C107U] | 0 |
| GUUAACGGUCAUAGGCCAUGGAAACUAGGAGCACCAUUUCACUGCCAGUGAAGAAAUGAACAAAGAAAAUCUGGGCCGGGCAGGCAUCUAAAGAAAUAGUCUUGCGCCCAACCAGAGAGUCUGUAAUCAUUUUAAGGGUA [G41A A78G A89U U108C A117G] | 0.01 |
| GUUAACGGUCAUAGGCCAUGGAAACUAGGAGCACCAUUUAGCUGCCAGUGAAGAAAUGAUCAAAGAAAAUCUGGGCCAGGCAGGCAUCAAAAGAAUUAGUCUUGCGCUCAACCAGAAAGUCUGUAAUCAUUUUAAGGGUA [C40A A60U A96U] | 2.35 |
| GUUAACGGUCAUAGGCCAUGGAAACUAGGAGCACCAUUUUGCUGCCAGUGAAGAAAUGAACAAAGAAAAUCUGGGCCAGGCGGGCAUCAAAAGAAAUAGUCUUGCGCUCGACCAGAAAGUCUGUAAUCAUUUUAAGGGUA [C40U A82G A110G] | 0.04 |
| GUUAACGGUCAUAGGCCAUGGAAACUAGGAGCACCAUUUCCCUGCCAGUGAAGAAAUGAACAACGAAAAUCUGGGCCAGGCAGGCAUCAAAAGAGAUAGUCUUGCGCUCAACCAGUAAGUCUGUAAUCAUUUUAAGGGUA [G41C A64C A95G A116U] | 0.54 |
| GUUAACGGUCAUAGGCCAUGGAAACUAGGAGCACCAUUUCACUGCCAGUGAAGAAGUGAACAGAGAAAAUCUGGGCCAGGCAGGCAUCAAAAGAAAUAGUCUUGCGCUCAACCAGAAAGUCUGUAAUCAUUUUAAGGGUA [G41A A56G A63G] | 1.07 |
| GUUAACGGUCAUAGGCCAUGGAAACUAGGAGCACCAUUUCACUGCCAGUGAAGAAAUGCACAAGGAAAAUCUGGGCCAGGCAGGCAUCAGAAGAAAUAGUCUUGCGCUCAACCAGAAAGUCUGUAAUCAUUUUAAGGGUA [G41A A59C A64G A90G] | 0.93 |
| GUUAACGGUCAUAGGCCAUGGAAACUAGGAGCACCAUUUUGCUGCCAGUGAAGGAAUGAGCAAAGAAAGUCCGGGCCAGGCAGGCAUCAAAAGAAAUAGUCUUGCGCUCAACCAGAAAGUCUGUAAUCAUUUUGAGGGUA [C40U A54G A60G A69G U72C A134G] | 0.09 |
| GUUAACGGUCAUAGGCCAUGGAAACUAGGAGCACCAUUUUGCUGCCAGUGAAGAAAUGAACAAAGGAAAUCUGGGCCAGGCAGGCAGCAAAAGAAAUAGUCUUGCGCUCAACCAGAAAGUCUGUAAUCAUUUUAAGGGUA [C40U A66G U87G] | 0.32 |
| GUUAACGGUCAUAGGCCAUGGAAACUAGGAGCACCAUUUCACUGCCAGUGAAGAAGUGAACAAAGAAGAUCUGGAUCAGGCAGGCAUCAACAGAAAUAGUCUUGCGCUCAACCAGAAAGUCUGUAAUCAUUUUAAGGGUA [G41A A56G A68G G75A C76U A91C] | 0.13 |
| GUUAACGGUCAUAGGCCAUGGAAACUAGGAGCACCAUUUCACUGCCAGUGAAGAAAUGAACAAGGAAAAUCUGGGCCAGGCAGGCAUCAAAAGAAAUAGUCUUGCGCUCAACCAGAAGGUCUGUAAUCAUUUUAAGGGUA [G41A A64G A118G] | 0.39 |
| GUUAACGGUCAUAGGCCAUGGAAACUAGGAGCACCAUUUCCCUGCCAGUGAAGAAAUGAACAAAGAAAAUCUGGGCCAGGCAGGCAUCAAAAGAAAUAGUCUUGCGCUCAACCAGAGAGUCUGUAAUCUUUUUAAGGGUA [G41C A117G A129U] | 0.53 |
| GUUAACGGUCAUAGGCCAUGGAAACUAGGAGCACCAUUUUGCGGCCAGUGAAGAAAUGAACAAAGGAAAUCUGGGCCAGGCAGGCAUCGAAAGAAGUAGUCUUGCGCUCAACCAGAAAGUCUGUAAUCUUUUUAAGGGUA [C40U U43G A66G A89G A96G A129U] | 0.57 |
| GUUAACGGUCAUAGGCCAUGGAAACUAGGAGCACCAUUUUGCUGCCAGCGAAGAAAUGAACAAAGAAAAUCUGGGCCAGGCAGGCAUCAAAAGAAAUAGUCUUGCGCCCAACCAGAAAGUCUGUAAUCAUUUUAAGGGUA [C40U U49C U108C] | 0 |
| GUUAACGGUCAUAGGCCAUGGAAACUAGGAGCACCAUUUUGCCGCCAGUGAAGAAAUGAACAAAGAAAAUCUGGGCCAGGCAGGCAUCAAAAGAAAUAGUCUUGCGCUCAACCAGAAAGUCUGUAAUCAUUUUGAGGGUA [C40U U43C A134G] | 0.81 |
| GUUAACGGUCAUAGGCCAUGGAAACUAGGAGCACCAUUUCACUGCCAGUGAAGAAAUGAACAAAGAAAAUCUGGGCCAGGCAGGCAUCAAAAGAAAUAGUCUUGUGCUCAACCAGAAAGUCUGUAAUCAUAUUAAGGGUA [G41A C105U U131A] | 0.23 |
| GUUAACGGUCAUAGGCCAUGGAAACUAGGAGCACCAUUUCACUGCCAGCGAAGAAAUGAACAAAGAAAAUCUGGGCCAGGCAGGCACCAAAAGAAAUAGUCUUGCGCUCAACCAGAAAGUCUGUAAUCAUUUUAAGGGUA [G41A U49C U87C] | 0.32 |
| GUUAACGGUCAUAGGCCAUGGAAACUAGGAGCACCAUUUCACUGCCAGUGAAGAGAUGAACAGAGAAAAUCUGGGCCAGGCAGGCAUCAAAAGAAAUAGUCUUGCGCUCAACCAGAAAGUCUGUAAUCAUUUUAAGGGUA [G41A A55G A63G] | 2.1 |
| GUUAACGGUCAUAGGCCAUGGAAACUAGGAGCACCAUUCCGCUGCCAGUGAAGAAAUGAACAAAGAAAAUCUGGGCCAGGCAGGCAUCAAAAGAAAUAGUCUUGCGCUCAACCAGAAAGUCUGUAAUCAUUGUAGGGGUA [U39C U132G A135G] | 1.01 |
| GUUAACGGUCAUAGGCCAUGGAAACUAGGAGCACCAUUUAGCUGCCAGUGAAGAAAUGAACAAAGAAAAUCUGGGCCAGCCAGGCAUCAAAAGAAGUAGUCUUGCGGUUAACCAGAAAGCCUGUAAUCAUUUUAAGGGUA [C40A G80C A96G C107G C109U U120C] | 0.03 |
| GUUAACGGUCAUAGGCCAUGGAAACUAGGAGCACCAUUUCACUGGCAGUGAAGAAAUGAACAAAGAAAAUCUGGGCCAGGCAGGCAUCAAAAGAAAUAGUCUCGCGCUCAACCAGAAAGUCUGUAAUCAUUUUAAGGGUA [G41A C45G U103C] | 1.07 |
